# Measurements: article PMC4336329 (PLoS ONE, 2015)
# Out of some 310,000 compounds screened, about 2,200 (0.71%) showed an effect of 50% or more. The effect is printed as a negative number. Some of the results follow.
# Target: human ether-à-go-go-related gene (hERG) potassium channel (human, UniProt Q12809)
# Test: primary screen, population patch clamp on CHO cells stably expressing hERG
# Chain of human ether-à-go-go-related gene (hERG) potassium channel (Q12809 whole entry, looked up): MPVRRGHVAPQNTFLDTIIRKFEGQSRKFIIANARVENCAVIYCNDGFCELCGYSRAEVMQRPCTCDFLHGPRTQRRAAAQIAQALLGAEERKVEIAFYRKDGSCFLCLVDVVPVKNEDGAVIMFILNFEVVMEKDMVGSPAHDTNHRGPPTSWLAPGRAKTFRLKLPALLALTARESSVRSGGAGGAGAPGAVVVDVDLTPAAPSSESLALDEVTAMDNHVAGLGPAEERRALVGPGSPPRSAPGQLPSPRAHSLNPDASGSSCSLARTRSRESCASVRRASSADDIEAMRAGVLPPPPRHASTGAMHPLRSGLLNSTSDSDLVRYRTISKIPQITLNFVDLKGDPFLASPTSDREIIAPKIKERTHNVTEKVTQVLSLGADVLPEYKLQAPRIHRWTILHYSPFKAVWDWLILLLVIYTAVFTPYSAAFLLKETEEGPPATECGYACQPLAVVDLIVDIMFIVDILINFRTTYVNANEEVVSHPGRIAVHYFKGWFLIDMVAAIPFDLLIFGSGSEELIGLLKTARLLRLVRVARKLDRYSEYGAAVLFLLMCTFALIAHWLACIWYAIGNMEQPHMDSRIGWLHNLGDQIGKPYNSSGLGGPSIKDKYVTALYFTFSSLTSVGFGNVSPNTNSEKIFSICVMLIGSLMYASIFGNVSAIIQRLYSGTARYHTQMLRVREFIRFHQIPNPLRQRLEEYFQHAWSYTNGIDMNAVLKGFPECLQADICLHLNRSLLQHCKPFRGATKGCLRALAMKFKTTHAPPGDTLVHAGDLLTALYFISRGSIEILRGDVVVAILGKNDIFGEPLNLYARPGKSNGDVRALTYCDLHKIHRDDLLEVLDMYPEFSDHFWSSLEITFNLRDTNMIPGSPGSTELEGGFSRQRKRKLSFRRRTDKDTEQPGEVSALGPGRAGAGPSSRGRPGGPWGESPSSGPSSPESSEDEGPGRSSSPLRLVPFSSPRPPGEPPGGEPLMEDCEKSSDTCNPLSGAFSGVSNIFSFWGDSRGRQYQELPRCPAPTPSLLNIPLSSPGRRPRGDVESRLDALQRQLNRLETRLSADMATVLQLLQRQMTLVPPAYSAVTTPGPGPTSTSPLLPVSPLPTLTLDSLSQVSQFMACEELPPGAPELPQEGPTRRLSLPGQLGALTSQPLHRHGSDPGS
row,Compound,"hERG current change (%, negative = inhibition) at 1uM [%]"
1,O=C(OC[C@H]1O[C@@H](OC(=O)c2cc(O)c(O)c(OC(=O)c3cc(O)c(O)c(O)c3)c2)[C@H](OC(=O)c2cc(O)c(O)c(OC(=O)c3cc(O)c(O)c(O)c3)c2)[C@@H](OC(=O)c2cc(O)c(O)c(OC(=O)c3cc(O)c(O)c(O)c3)c2)[C@@H]1OC(=O)c1cc(O)c(O)c(OC(=O)c2cc(O)c(O)c(O)c2)c1)c1cc(O)c(O)c(OC(=O)c2cc(O)c(O)c(O)c2)c1,12.2
2,O=C1NC2(CCCC2)C(=O)N1Cc1cc(=O)n2ccsc2n1,11.4
3,O=C(Nc1cccnc1)Nc1cc(Cl)cc(Cl)c1,2.53
4,O=C(O)C1C2C=CC3(CN(c4cccc(C(F)(F)F)c4)C(=O)C13)O2 (stereo not shown),18.4
5,O=C(CN(Cc1cccs1)C(=O)CN1C(=O)COc2ccccc21)NCc1ccco1,2.09
6,CC(=O)NNC(=O)c1nc(-c2ccccc2)c(C)o1,14.5
7,CC1(C)CN(c2ccc(N3CC(C)(C)C3=O)cc2)C1=O,10.3
8,Cc1sc2ncnc(N3CCC(C(=O)Nc4ccc(Cl)c(Cl)c4)CC3)c2c1C,10.4
9,CC(=O)Nc1nc(N2C(=O)c3ccccc3C2=O)n(-c2ccccc2)n1,24.3
10,COc1cccc(CNC(=O)C(=O)N2CCC3(CC2)OCCN3S(=O)(=O)c2ccc(C)cc2)c1,-10.9
11,Cc1ccc(N(C(=O)c2ccc(CN3CCOCC3)o2)C(C(=O)NCCC(C)C)c2cccs2)c(C)c1 (stereo not shown),6.63
12,CCCCNC(=O)CNC(=S)N(Cc1ccccc1)Cc1cccnc1,1.95
13,NNc1ccc(Cl)nn1,7.62
14,CC(=O)N1CCc2cc(S(=O)(=O)CCC(=O)N3CCc4ccccc4C3)ccc21,19.2
15,O=C(NCc1csc(-c2cccs2)n1)c1cccc(Cl)c1,15.4
16,CC(=O)Nc1ccccc1OCCOc1ccc(Br)cc1,5.43
17,CCCN1CCN(C(=O)Cn2nc(C)n3c(cc4sccc43)c2=O)CC1,-7.23
18,CN(CC(=O)Nc1c(Cl)cccc1Cl)C(=O)c1cc(-c2cccs2)nn1-c1ccccc1,-2.47
19,O=C(CSc1nnc(CNC(=O)c2ccc(F)cc2)o1)NCc1ccccc1,-1.97
20,CCCc1cc(=O)n2[nH]c(NC(=O)c3ccco3)nc2n1,14.9
21,COc1ccc(NC(=O)CS(=O)(=O)c2ccc(Br)cc2)cc1,20
22,CN1CCN(NC(=S)Nc2ccc(Oc3ccccc3)cc2)CC1,13.5

row,Compound,"hERG current change (%, negative = inhibition) at 1uM [%]"
1,CCn1ccnc1CN(C)Cc1cn(C)nc1-c1ccccc1F,16.6
2,Br.N=C(N)SCCN,15.3
3,COC(=O)c1c(NC(=O)c2ccc(Br)s2)sc2c1CCC2,-1.26
4,O=C(NCC1CCCO1)c1ccc2c(c1)S(=O)(=O)c1ccccc1C2=O (stereo not shown),3.24
5,Cc1ccc(Cc2cncc(O)c2)cc1S(=O)(=O)O,7.4
6,O=C(O)c1cn(Cc2ccccn2)c(=O)c2ccccc12,0.0087
7,Cc1ccc(OCCSc2nnc(NC(=O)c3ccco3)s2)cc1,13.7
8,CCOC(=O)CCC(=O)N1CCOCCOCCOCC1,4.01
9,COc1ccc(C2c3c(ccc4ccccc34)Oc3ncn4nc(CO/N=C/c5ccccc5)nc4c32)cc1 (stereo not shown),11.1
10,CCS(=O)(=O)c1ccc2oc(SCC(=O)NCCc3ccc(OC)cc3)nc2c1,-4.88
11,CCN(CC)CCCN=Cc1c(O)n(-c2cccc(C)c2)c(=O)c2ccccc12,-5.31
12,COc1c(C)cc(C(=O)C2CCCN(Cc3cccc4nccnc34)C2)cc1C (stereo not shown),-21.2
13,CC(=O)NCCc1nc2ccccc2n1CCOc1ccccc1,13
14,Cn1nc(-c2ccc(N3CCOCC3)c(NS(=O)(=O)c3ccccc3)c2)c2ccccc2c1=O,-8.02
15,CC1CCCCN1C(=O)NC12CC3CC(CC(C3)C1)C2 (stereo not shown),1.78
16,O=C(CSc1nnc(CNc2ccc(Cl)cc2)o1)Nc1nc2c(s1)CCCC2,-3.66
17,CCn1c(-c2cccnc2Cl)nc2cc(C)c(C)cc21,-2.87
18,CCOC(=O)Cc1csc(NC(=O)c2ccc(Br)cc2)n1,13.4
19,O=C(NNC(=S)NCc1ccccc1)c1ccc(Br)o1,8.57
20,COCCNC(=S)N(CCO)Cc1cc2cc3c(cc2[nH]c1=O)OCO3,16.2
21,Cc1cc(NC(=O)CSc2nc(C(C)(C)C)nc3ccccc23)no1,7.92
